Here are results for 115 sequences from the BET-seq Pho4 binding data (Le et al. 2018).

This is one part of the list. The energies were worked out here from pooled read counts, against the library average; single values are noisy.

The assay has as its target T1, Pho4 (S. cerevisiae) (UniProt P07270).
T1 sequence: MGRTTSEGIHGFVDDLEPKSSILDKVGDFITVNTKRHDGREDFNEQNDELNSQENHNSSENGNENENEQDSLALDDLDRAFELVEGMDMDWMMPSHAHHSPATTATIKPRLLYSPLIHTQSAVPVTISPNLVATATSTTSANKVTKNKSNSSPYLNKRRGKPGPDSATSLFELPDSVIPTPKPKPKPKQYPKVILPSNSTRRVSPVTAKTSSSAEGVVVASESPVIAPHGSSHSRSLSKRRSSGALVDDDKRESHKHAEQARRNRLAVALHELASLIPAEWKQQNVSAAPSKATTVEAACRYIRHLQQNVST
The assay can be described thus: relative binding free energy (BET-seq); higher = weaker binding. The note with it: reference: library average.
As to TGTTGCACGTGCCTTT, the “relative binding free energy” value is -0.14 kcal/mol.

Turning to GTAATCACGTGCGGGG, the “relative binding free energy” value was found to be 0.11 kcal/mol.

As to TTCTACACGTGTCGGT, the “relative binding free energy” value is 0.17 kcal/mol.

Regarding CTGTGCACGTGAATGT, the “relative binding free energy” value was 0.11 kcal/mol.

For the sequence CAGTTCACGTGTAGGT, the “relative binding free energy” value amounted to 0.22 kcal/mol.

On to TTTACCACGTGGGTAG, for which the “relative binding free energy” value is -0.19 kcal/mol.

On to GGTGGCACGTGAAAAT, for which the “relative binding free energy” value is 0.3 kcal/mol.

Consider GATACCACGTGGTGTT, for which the “relative binding free energy” value was -0.06 kcal/mol.

For the sequence TTGGGCACGTGATCTA, the “relative binding free energy” value is -0.13 kcal/mol.

On to GAGTACACGTGTGGGT, for which the “relative binding free energy” value amounted to 0.17 kcal/mol.

As for CTGTGCACGTGTGTTC, the “relative binding free energy” value is -0.03 kcal/mol.

For GGCGACACGTGGGTTG, the “relative binding free energy” value was -0.02 kcal/mol.

In the case of TATTGCACGTGACATT, the “relative binding free energy” value was 0.02 kcal/mol.

As to TAAAGCACGTGGTAAT, the “relative binding free energy” value was -0.13 kcal/mol.

Take GGTTTCACGTGGATGT: the “relative binding free energy” value came to 0.24 kcal/mol.

Regarding AGATTCACGTGTGATA, the “relative binding free energy” value was found to be 0.27 kcal/mol.

On to GCTTGCACGTGATGAT, for which the “relative binding free energy” value was 0.29 kcal/mol.

Consider ATGTTCACGTGAGACT, for which the “relative binding free energy” value is 0.29 kcal/mol.

TCGTTCACGTGGGTAA: the “relative binding free energy” value worked out at 0.2 kcal/mol.

For the sequence AGTGACACGTGATCGG, the “relative binding free energy” value came to 0.16 kcal/mol.

Take TTGGTCACGTGTCACG: the “relative binding free energy” value worked out at 0.25 kcal/mol.

As to AGAAGCACGTGAGTGT, the “relative binding free energy” value came to 0.17 kcal/mol.

On to TTTAACACGTGTCTGT, for which the “relative binding free energy” value is -0.1 kcal/mol.

Regarding TTCGTCACGTGTGGTG, the “relative binding free energy” value amounted to 0.1 kcal/mol.

For the sequence GGGGGCACGTGATCTT, the “relative binding free energy” value was -0.02 kcal/mol.

For AGGCTCACGTGTTTTG, the “relative binding free energy” value turned out to be 0.23 kcal/mol.

Consider TGTAGCACGTGCGTGG, for which the “relative binding free energy” value is -0.12 kcal/mol.

For GGGTTCACGTGGATTA, the “relative binding free energy” value is 0.27 kcal/mol.

Consider CAAGACACGTGGGTAT, for which the “relative binding free energy” value amounted to 0.1 kcal/mol.

As for GGTGACACGTGTTGGC, the “relative binding free energy” value is 0.16 kcal/mol.

Turning to GGTAGCACGTGAGGTT, the “relative binding free energy” value amounted to 0.28 kcal/mol.

GCTTGCACGTGGGGTC: the “relative binding free energy” value is -0.04 kcal/mol.

With ACGTGCACGTGGAAGT, the “relative binding free energy” value was -0.09 kcal/mol.

Regarding TGTTCCACGTGATATT, the “relative binding free energy” value worked out at 0.22 kcal/mol.

Take AGGAGCACGTGGAGCT: the “relative binding free energy” value was -0.05 kcal/mol.

Regarding TTGATCACGTGTGGCT, the “relative binding free energy” value was determined as 0.05 kcal/mol.

As for GTGGGCACGTGCACGG, the “relative binding free energy” value was -0.06 kcal/mol.

CAGTGCACGTGATGGT: the “relative binding free energy” value is 0.21 kcal/mol.

For TACGTCACGTGTTGGA, the “relative binding free energy” value was found to be 0.09 kcal/mol.

Regarding ATAAGCACGTGTAGGC, the “relative binding free energy” value is -0.04 kcal/mol.

As to TGATTCACGTGTTCGT, the “relative binding free energy” value was determined as 0.25 kcal/mol.

For the sequence TGTATCACGTGCAGGG, the “relative binding free energy” value worked out at 0.15 kcal/mol.

As to CTGGCCACGTGTGGGT, the “relative binding free energy” value is -0.11 kcal/mol.

Consider ATTTACACGTGTTCGT, for which the “relative binding free energy” value is 0.16 kcal/mol.

As to AAATTCACGTGTGGGA, the “relative binding free energy” value worked out at 0.09 kcal/mol.

Consider TTAGTCACGTGCTTAT, for which the “relative binding free energy” value is 0.02 kcal/mol.

Turning to TGTTACACGTGTGCAG, the “relative binding free energy” value was 0.12 kcal/mol.

Take TGGTTCACGTGCGGAA: the “relative binding free energy” value amounted to 0.3 kcal/mol.

Turning to GAATTCACGTGGGGCT, the “relative binding free energy” value turned out to be 0.38 kcal/mol.

For the sequence TATGACACGTGATTGG, the “relative binding free energy” value was found to be 0.17 kcal/mol.

On to GTTGCCACGTGTCGGG, for which the “relative binding free energy” value was 0.01 kcal/mol.

Regarding TTATTCACGTGAGCTG, the “relative binding free energy” value came to 0.39 kcal/mol.

Take GTGGTCACGTGTAAAA: the “relative binding free energy” value is 0.21 kcal/mol.

On to GCTTTCACGTGTATAT, for which the “relative binding free energy” value came out at 0.35 kcal/mol.

As for ATCAGCACGTGTGAGG, the “relative binding free energy” value was -0.01 kcal/mol.

On to TTCGTCACGTGGCGAT, for which the “relative binding free energy” value amounted to 0.11 kcal/mol.

As to AGTAGCACGTGAGAGA, the “relative binding free energy” value stood at 0.24 kcal/mol.

For the sequence TTCAGCACGTGGATGG, the “relative binding free energy” value is -0.17 kcal/mol.

Turning to TTATCCACGTGCTGGT, the “relative binding free energy” value was 0.1 kcal/mol.

As for TTAATCACGTGGGGGC, the “relative binding free energy” value stood at 0.11 kcal/mol.

Regarding ATAAACACGTGTGGGA, the “relative binding free energy” value amounted to 0.04 kcal/mol.

Turning to CTAGTCACGTGGGGTC, the “relative binding free energy” value is -0.08 kcal/mol.

Take GGATACACGTGTATGG: the “relative binding free energy” value was 0.17 kcal/mol.

With ATGTGCACGTGGTTCC, the “relative binding free energy” value was -0.09 kcal/mol.

Consider GTAATCACGTGTGGAT, for which the “relative binding free energy” value was 0.22 kcal/mol.

Take TTTAACACGTGATCGG: the “relative binding free energy” value worked out at 0.07 kcal/mol.

Turning to GTTATCACGTGGTCGA, the “relative binding free energy” value stood at 0.08 kcal/mol.

Turning to TTCGTCACGTGCTGGT, the “relative binding free energy” value is -0.14 kcal/mol.

As for CTTGTCACGTGGTTTG, the “relative binding free energy” value came to 0.11 kcal/mol.

Consider TGGGTCACGTGGTTAC, for which the “relative binding free energy” value came to 0.13 kcal/mol.

In the case of AGGTTCACGTGGATCT, the “relative binding free energy” value amounted to 0.16 kcal/mol.

On to TGTCTCACGTGATCGT, for which the “relative binding free energy” value is 0.26 kcal/mol.

For the sequence TTTTACACGTGAGCAT, the “relative binding free energy” value was determined as 0.31 kcal/mol.

Consider AGCATCACGTGTATGG, for which the “relative binding free energy” value is 0.25 kcal/mol.

AGTGCCACGTGTAGGT: the “relative binding free energy” value worked out at 0 kcal/mol.

For GTTATCACGTGAGTCT, the “relative binding free energy” value is 0.23 kcal/mol.

Regarding AGTGGCACGTGTCATT, the “relative binding free energy” value is -0.13 kcal/mol.

Consider ATAGGCACGTGACTGT, for which the “relative binding free energy” value is -0.08 kcal/mol.

TCTTGCACGTGAGTCT: the “relative binding free energy” value amounted to 0.24 kcal/mol.

Consider GTATCCACGTGGAGTT, for which the “relative binding free energy” value is 0.22 kcal/mol.

Take GGGGGCACGTGCATTG: the “relative binding free energy” value is -0.08 kcal/mol.

Turning to GTGATCACGTGAGCTT, the “relative binding free energy” value was determined as 0.18 kcal/mol.

With TGTGCCACGTGCGCGG, the “relative binding free energy” value is -0.31 kcal/mol.

Take TTTCTCACGTGGGAAG: the “relative binding free energy” value stood at 0.2 kcal/mol.

TGATGCACGTGCGGGC: the “relative binding free energy” value amounted to 0.07 kcal/mol.

For TTTTTCACGTGCACTT, the “relative binding free energy” value came to 0.15 kcal/mol.

For CGTGTCACGTGATGTA, the “relative binding free energy” value amounted to 0.15 kcal/mol.

TTGTACACGTGTATGG: the “relative binding free energy” value is 0.11 kcal/mol.

On to TTGAGCACGTGGGGGT, for which the “relative binding free energy” value was -0.18 kcal/mol.

As for GGAGGCACGTGTCAGT, the “relative binding free energy” value was -0.12 kcal/mol.

In the case of CGTAGCACGTGTTTTG, the “relative binding free energy” value was -0.14 kcal/mol.

For ACAGGCACGTGAGATG, the “relative binding free energy” value amounted to 0.15 kcal/mol.

Regarding ATTAGCACGTGTTTCG, the “relative binding free energy” value was -0.12 kcal/mol.

In the case of GAGTCCACGTGAGGGT, the “relative binding free energy” value was determined as 0.36 kcal/mol.

On to TCTTGCACGTGGATCG, for which the “relative binding free energy” value was 0.06 kcal/mol.

In the case of GTGGGCACGTGCGGCT, the “relative binding free energy” value is -0.15 kcal/mol.

As to CTGTTCACGTGGCGTT, the “relative binding free energy” value amounted to 0.22 kcal/mol.

In the case of CCGTTCACGTGGTTGT, the “relative binding free energy” value came to 0.2 kcal/mol.

GAGAGCACGTGGTGGT: the “relative binding free energy” value was -0.13 kcal/mol.

Regarding TTTTTCACGTGATTGT, the “relative binding free energy” value was found to be 0.39 kcal/mol.

As for TTAGTCACGTGAGTGG, the “relative binding free energy” value amounted to 0.3 kcal/mol.

With TTGTGCACGTGATCTA, the “relative binding free energy” value is 0.01 kcal/mol.

For the sequence ATGTGCACGTGGATAT, the “relative binding free energy” value was -0.18 kcal/mol.

For TGATTCACGTGTATGA, the “relative binding free energy” value is 0.22 kcal/mol.

With AAGGGCACGTGTTGAG, the “relative binding free energy” value was -0.07 kcal/mol.

As to GAATGCACGTGATTTG, the “relative binding free energy” value was found to be 0.15 kcal/mol.

For the sequence TGTACCACGTGTCTGG, the “relative binding free energy” value was -0.11 kcal/mol.

AGACGCACGTGGTTGG: the “relative binding free energy” value was -0.31 kcal/mol.

In the case of GATTTCACGTGGTGTG, the “relative binding free energy” value came out at 0.21 kcal/mol.

Consider TTGGGCACGTGGTTAT, for which the “relative binding free energy” value is -0.11 kcal/mol.

Regarding GCGTGCACGTGTAGGT, the “relative binding free energy” value was 0.02 kcal/mol.

As for CAAGGCACGTGCGGGA, the “relative binding free energy” value was -0.08 kcal/mol.

As for ATGTGCACGTGTTATG, the “relative binding free energy” value was -0.02 kcal/mol.

Take TGGCGCACGTGGTGAA: the “relative binding free energy” value was -0.23 kcal/mol.

Regarding GTTATCACGTGGACTG, the “relative binding free energy” value was determined as 0.32 kcal/mol.
